Experimental data reported in article PMC6099588.

Test system: HCVpp
Assay: HCVpp time-of-addition assay
Conditions: inhibitor added to HEK293T cells only after transfection (II); not before or during infection of Huh-7.5 cells

Compound | effect on infectivity of HCVpp by time of addition
CC(=O)O[C@H]1[C@H](C)O[C@H](OC[C@H]2O[C@@H](n3ccc(=O)n(C(=O)c4ccccc4)c3=O)[C@@H]3OC(C)(C)O[C@@H]32)C[C@@H]1O[Si](C)(C)C(C)(C)C [Compound 2] | significant decrease in infectivity of HCVpp
CC1(C)O[C@@H]2[C@H](O1)[C@@H](CO[C@@H]1C[C@@H](OCc3ccccc3)[C@H](OCc3ccccc3)[C@@H](COCc3ccccc3)O1)O[C@H]2n1ccc(=O)n(C(=O)c2ccccc2)c1=O [Compound 4] | significant decrease in infectivity of HCVpp
